Data as given in PubChem BioAssay AID463173 (ICCB-Longwood Screening Facility, Harvard Medical School, 2010).
In all, about 52,000 compounds went through this assay and about 4,300 (8.3%) were called active. Cut-off read from the data, not from the text of the source: active = survival mostly below about 52% (no sharp cut-off); inactive = mostly above about 56%. The list shows a part of the results.

tested on: DeltatarO mutant; assay: growth inhibition of S. aureus wild type versus tarO mutant, primary screen, teichoic acid synthesis inhibitors, RN4220, OD600 (AID 463173); settings: OD600, 18 h, hits give low values, screened at 18.75 µg/mL (by protocol)

Row | SMILES | survival
1 | CS(=O)(=O)N1CCC(C(=O)Nc2ccccc2)CC1 | inactive: 100%
2 | CCOc1ccccc1CNC(=O)CCc1c(C)nn(-c2ccc(N3CCOCC3)nn2)c1C | inactive: 77%
3 | CCN(CC)S(=O)(=O)c1ccc(C(=O)NCCSc2c(-c3ccc(C)cc3)[nH]c3ccccc23)cc1 | inactive: 79%
4 | COc1ccc(N2CCN(S(=O)(=O)CCNC(=O)COc3ccccc3F)CC2)cc1 | inactive: 83%
5 | CCN1CCN(C(=O)Cn2c(-c3cccs3)cc3ccccc32)CC1 | inactive: 90%
6 | COc1cccc(OCc2cc(=O)n3c(-c4ccccc4)csc3n2)c1 | inactive: 74%
7 | COc1nc(-c2ccccc2)ccc1-c1noc(-c2ccccc2Br)n1 | active: -1%
8 | Cc1c(-c2nc(-c3ccccc3F)no2)nnn1-c1cc(F)ccc1F | inactive: 84%
9 | CCOC(=O)C1=C(CC)NC2=C(C(=O)CCC2)C1c1ccccc1 (stereo not drawn) | inactive: 94%
10 | Cc1ccc(CNC(=O)CSc2c3c(nc4cc(Cl)ccc24)CCCC3)cc1 | inactive: 80%
11 | CCCNC(=O)C(C)n1nc(C)c2c(C)n(-c3ccccc3)nc2c1=O (stereo not drawn) | inactive: 102%
12 | O=c1oc2cc(O)ccc2cc1-c1nnc(Nc2ccccc2F)s1 | inactive: 59%
13 | CCOC(=O)CSc1nc(-c2ccc(Cl)cc2)cc(C(F)(F)F)c1C#N | inactive: 69%
14 | CC1Cc2ccccc2N1C(=O)CSc1nnc2n1C(C)(C)Cc1ccccc1-2 (stereo not drawn) | inactive: 77%
15 | CN1C(=O)c2ccccc2Sc2ccc(NC(=O)NCc3cccc(Cl)c3)cc21 | inactive: 78%
16 | Cc1ccc(NC(=O)CCNS(=O)(=O)c2cccc3nonc23)cc1Cl | active: 39%
17 | Cc1cn2c(=O)cc(COC(=O)c3cccc(NC(=O)COc4ccccc4C)c3)nc2s1 | inactive: 85%
18 | CCC(=O)n1nc(-c2ccc(OC)cc2)nc1SC | inactive: 86%
19 | Cc1ccccc1C(=O)NCCc1csc(-c2ccc(C(F)(F)F)cc2)n1 | inactive: 89%
20 | COc1ccc(-n2c(-c3ccc(C)cc3)cc3c2CC(C)(C)CC3=O)c(OC)c1 | inactive: 101%

Row | SMILES | survival
21 | Cc1ccc(Cc2nc3ccccc3nc2SCC(=O)N2CCCc3ccccc32)cc1 | inactive: 95%
22 | CSCCC(NS(=O)(=O)c1ccc2c(c1)oc(=O)n2C)C(=O)N1CCN(c2cc(Cl)ccc2C)CC1 (stereo not drawn) | inactive: 75%
23 | Cc1cc2c(cc3c(SCc4ccc(Cl)cc4)nnc(C)n32)o1 | inactive: 57%
24 | COc1ccc(NC(=O)CSc2oc(-c3ccc(C)cc3)nc2S(=O)(=O)c2ccc(C)cc2)c(OC)c1 | inactive: 60%
25 | CCN(CCCNC(=O)c1cc2cc3cc(OC)ccc3nc2s1)c1cccc(C)c1 | active: 46%
26 | Cc1cccc(N2CCN(C(=O)c3nn(C)c4c3CSc3ccccc3-4)CC2C)c1 (stereo not drawn) | inactive: 82%
27 | Cc1ccc(-c2nc3sccn3c2Nc2ccccc2C)cc1 | inactive: 48%
28 | COc1cccc(CNC(=O)CN2C(=O)CSc3ccc(S(=O)(=O)N(C)C)cc32)c1 | inactive: 86%
29 | CC1CCN(C(=O)c2cnn(-c3ccc(Cl)cc3)c2C2CCN(C(=O)OC(C)(C)C)CC2)CC1 | inactive: 76%
30 | CC(C)(C)C1CCc2c(sc(NC(=O)c3cccc(Cl)c3)c2C(N)=O)C1 (stereo not drawn) | inactive: 70%
31 | Cn1c(SCC(=O)Nc2ccccc2)nc2ccccc2c1=O | inactive: 95%
32 | COc1nc(-c2ccccc2)ccc1-c1noc(C(C)C)n1 | inactive: 91%
33 | CN(C)C(=O)CCSc1nc2cc(Cl)ccc2o1 | inactive: 84%
34 | Cc1ccc(NS(=O)(=O)c2ccc3c4c(cccc24)C(=O)N3)c(C)c1 | inactive: 58%
35 | CCn1cc(C(=O)NCc2ccccc2)c(=O)c2cc(S(=O)(=O)N3CCCCC3)ccc21 | inactive: 79%
36 | Cc1ccc(C(NC(=O)Cc2cccs2)C(=O)Nc2ccc(C(C)C)cc2)cc1 (stereo not drawn) | inactive: 60%
37 | CN(Cc1ccccc1)S(=O)(=O)c1ccc(F)c(C(=O)Nc2ccccc2C(F)(F)F)c1 | active: -5%
38 | Cc1cccc(-c2nc3c4ccccc4nc(NCc4ccccc4Cl)n3n2)c1 | inactive: 138%
39 | O=C(COc1ccccc1)N(Cc1cccnc1)c1nc2ccc(Cl)cc2s1 | inactive: 87%
40 | Nc1n[nH]c2nc(C(F)(F)F)cc(=O)n12 | inactive: 62%

Row | SMILES | survival
41 | CNS(=O)(=O)c1cn(CC(=O)N2CCN(c3ccc(OC)cc3)CC2)cc1S(=O)(=O)NC | inactive: 69%
42 | O=C1OCc2c1[nH]c(=O)[nH]c2=O | inactive: 101%
43 | CCc1cccc(NC(=O)CNS(=O)(=O)c2ccc3nc(C)sc3c2)c1 | inactive: 68%
44 | COc1ccc2c(c1)c1c(c(=O)n(-c3cccc(C)c3)c(=O)n1CC(=O)Nc1c(C)cc(C)cc1C)n2C | inactive: 158%
45 | Cc1cn(C)c(CC(=O)NCc2ccc(F)cc2)c1C(=O)O | inactive: 94%
46 | Cc1cc(C)cc(NC(=O)CN2C(=O)COc3ccc(S(=O)(=O)Nc4ccccc4)cc32)c1 | inactive: 77%
47 | CCOC(=O)c1ccccc1NC(=O)CSc1nc2ncccc2o1 | inactive: 72%
48 | CCN1CCN(Cc2c(O)ccc3oc(C)c(C(=O)Nc4ccc(OC)c(Cl)c4)c23)CC1 | inactive: 66%
49 | CC1=C(c2ccc(C)cc2)S(=O)(=O)N=C1N1CCN(c2ccccc2)CC1 | inactive: 87%
50 | CCC(C)NC(=O)c1cn(CC)c2ccc(S(=O)(=O)N3CCCCC3)cc2c1=O (stereo not drawn) | inactive: 84%
51 | Cc1ccc(CSC2=Nc3ccccc3C3=NC(CC(=O)NC4CCCCC4)C(=O)N23)c(C)c1 (stereo not drawn) | inactive: 67%
52 | CCn1c(=Nc2ccc(N3CCOCC3)cc2)ccc2ccccc21 | inactive: 66%
53 | COc1ccc2nc3sc(C(=O)Nc4cc(Cl)c(OC)cc4OC)cc3cc2c1 | inactive: 61%
54 | Cc1c(NC(=O)c2cc(-c3cccc(Cl)c3)on2)c(=O)n(-c2ccccc2)n1C | inactive: 55%
55 | O=C(NCCC1=CCCCC1)c1ccc2c(c1)N(Cc1ccc(F)cc1)C(=O)c1ccccc1S2(=O)=O | inactive: 115%
56 | O=C(CSc1nncn2c1cc1sccc12)Nc1ccccc1C(F)(F)F | inactive: 103%
57 | CCOC(=O)c1c(C)oc2nc(C)nc(NCc3ccc(C)cc3)c12 | inactive: 76%
58 | CCN1CCN(Cc2c(O)ccc3c(=O)c(Oc4ccccc4Cl)c(C(F)(F)F)oc23)CC1 | inactive: 90%
